Assay results as given in PubChem BioAssay AID1963320 (National Center for Advancing Translational Sciences (NCATS), 2024).
Hit rate of the full screen: of about 1,300 compounds, about 560 (43%) were called active. So high a share suggests a set chosen from earlier hits. Inconclusive results, whose numbers are uncertain, are shown with a selection of clear calls. Calls come from the whole dose curve; as a rule, active = well fitted inhibition curve with a large enough effect; inconclusive = small, poorly fitted or top-dose-only effect; inactive = flat fitted curve, though single readings scatter. A potency beside an inconclusive call is a rough fit, not a confirmed value.
% is set by controls: 0 for no effect and ±100 for the full control effect; potency is the fitted concentration of half-maximal effect; tags give direction and shape of the fitted curve.
Note: nearly all actives have a fitted effect of over 70% in size.

Each compound was assayed against Luciferin 4-monooxygenase (Photinus pyralis) (UniProt P08659) (assay: Firefly luciferase (FLuc-C-HiBiT) enzymatic inhibition screen - Functional assay). Settings: purified FLuc-C-HiBiT enzyme, luciferin luminescence; series mostly up to 32.7 µM; activity change, negative = inhibition: at the top concentration.
Sequence of UniProt P08659 (P08659 whole entry, looked up): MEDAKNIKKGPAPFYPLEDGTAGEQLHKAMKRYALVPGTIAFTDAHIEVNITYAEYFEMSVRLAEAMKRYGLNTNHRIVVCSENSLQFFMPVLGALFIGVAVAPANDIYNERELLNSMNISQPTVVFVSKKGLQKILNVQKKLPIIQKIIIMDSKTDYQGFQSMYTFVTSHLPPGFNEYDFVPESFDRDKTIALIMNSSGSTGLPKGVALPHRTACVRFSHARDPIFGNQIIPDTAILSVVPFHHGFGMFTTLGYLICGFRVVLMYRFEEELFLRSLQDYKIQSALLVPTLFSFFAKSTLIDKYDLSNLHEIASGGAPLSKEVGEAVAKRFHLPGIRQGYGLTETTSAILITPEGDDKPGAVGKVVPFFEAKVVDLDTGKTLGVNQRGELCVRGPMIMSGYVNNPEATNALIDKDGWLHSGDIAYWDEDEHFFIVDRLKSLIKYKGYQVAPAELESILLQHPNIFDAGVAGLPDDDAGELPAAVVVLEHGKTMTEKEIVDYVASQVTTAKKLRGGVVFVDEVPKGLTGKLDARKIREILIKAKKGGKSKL
Summary of the method: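 Luminescence is read by CCD imager 5-10 min after adding 10 uM D-luciferin (KM) to 10 nM FLuc-C-HiBiT enzyme with 10 uM ATP. Compounds are preincubated with the enzyme for over 30 min at room temperature, protected from light.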
With COc1ccc(C(=O)Oc2ccc(C(c3c(C)[nH][nH]c3=O)c3c(C)[nH][nH]c3=O)cc2)cc1 the Potency was inconclusive: 9.89 µM [inhibitor, partial curve]. For O=C(O)COCC(=O)N[C@H]1CCN2C(=O)c3cc(/C=C/c4ccccc4)ccc3NC(=O)[C@H]12, the Potency was inconclusive: 12.4 µM [inhibitor, partial curve]. Cc1nc2cc(-c3cccc(F)c3)nn2c(C)c1CCC(=O)NC1CCCCC1 was tested, and the Potency was inconclusive: 8.81 µM [inhibitor, partial curve]. COc1ccc(OCC(=O)Nc2cccc(-c3nc4ccccc4s3)c2C)cc1 was tested, and the Potency was active: 7.85 µM. Cc1ccc(-n2ncc3c(N4CCC(Cc5ccccc5)CC4)ncnc32)cc1 was tested, and the “activity change, negative = inhibition” value was inactive: -16.7%. For CC(=O)Nc1cc(-c2nc3ccccc3s2)ccc1C, the Potency was inconclusive: 7 µM [inhibitor, partial curve, poor fit]. For Clc1ccc2c(c1)-n1cc(-c3ccccc3)nc1CO2, the “activity change, negative = inhibition” value was inactive: -18.7%. With O=C(COc1ccccc1)Nc1nnc(S(=O)(=O)Nc2ccccc2)s1 the Potency was inconclusive: 14 µM [inhibitor, partial curve, poor fit]. For CCS(=O)(=O)c1cccc(C(=O)Nc2ccc(-c3nc4ccccc4s3)c(O)c2)c1, the Potency was inconclusive: 4.42 µM [inhibitor, full curve]. With Cc1c(C(=O)Nc2cccc(-c3nc4ccccc4s3)c2)oc2ccc(F)cc12 the “activity change, negative = inhibition” value was inactive: -13.6%. With c1c(-c2nc(C3CCOC3)no2)sc2c1CCCC2 (stereo not given) the Potency was active: 5.56 µM. With Cc1ccc2oc(-c3ccc(C)c(NC(=O)/C=C/c4ccc(Cl)cc4)c3)nc2c1 the Potency was inconclusive: 11.1 µM [inhibitor, partial curve]. In the case of CCOc1ccc(-c2cc3c(=O)n(CCNC(=O)c4cccc(N(C)C)c4)ccn3n2)cc1, the Potency is reported as active: 3.94 µM. N#C/C(=C\c1ccc(-c2cc(Cl)ccc2Cl)o1)C(=O)Nc1ccccc1C(=O)O was tested, and the Potency was inconclusive: 17.6 µM [inhibitor, partial curve]. In the case of OC1(CN2CCCN(c3nc4ccccc4s3)CC2)CNCCOC1 (stereo not given), the “activity change, negative = inhibition” value is reported as inactive: -6.7%. For Cc1ccc2nc(-c3ccc(NC(=O)COc4ccc(Cl)c(C)c4)cc3)sc2c1, the “activity change, negative = inhibition” value was inactive: -10.8%. In the case of COc1ccc(-c2cc(N3CCCC(NC(=O)c4ccc5c(c4)OCO5)C3)n[nH]2)cc1 (stereo not given), the Potency is reported as inconclusive: 11.1 µM [inhibitor, partial curve]. Cc1nn(-c2ccc(C(C)C)cc2)c(C)c1[C@@H]1C=C[C@@H](NC(=O)Nc2ccccc2)C1 was tested, and the Potency was inconclusive: 18 µM [inhibitor, partial curve]. For C[C@@H]1CN(c2cnc3ccccc3n2)CC[C@@]1(O)C1CCC1, the Potency was inconclusive: 11.1 µM [inhibitor, partial curve]. With O=C(Nc1cccc(-c2ccc(N3CCOCC3)nn2)c1)Nc1cccc(C(F)(F)F)c1 the Potency was active: 4.95 µM. In the case of O=C(Nc1ccc(Cl)cc1)C1CCN(C(=O)c2ncn3c2COC(c2ccccc2)C3)CC1 (stereo not given), the Potency is reported as active: 1.76 µM. Cc1ccc(-c2nc3ccccc3s2)cc1NC(=O)c1ccc(-c2cccc(Cl)c2)o1 was tested, and the “activity change, negative = inhibition” value was inactive: -15%. In the case of O=C(O)c1ccccc1-c1nc2ccccc2s1, the “activity change, negative = inhibition” value is reported as inactive: -15.1%. For CCOc1cccc(-c2nc(C3CCOC3)no2)c1 (stereo not given), the “activity change, negative = inhibition” value was inactive: -2.72%. With Cc1nc(C)c(C(=O)N2CCC(Oc3ccc(-c4noc(-c5ccccc5)n4)cc3)C2)s1 (stereo not given) the Potency was inconclusive: 11.1 µM [inhibitor, partial curve]. In the case of Cc1cnc(CC2CCCN(C(=O)CCc3c[nH]c4ccccc34)C2)n1C(C)C (stereo not given), the “activity change, negative = inhibition” value is reported as inactive: 4.09%. Cc1ccccc1-c1noc(-c2ccc(NC(C)c3cnn(C)c3)nc2)n1 (stereo not given) was tested, and the Potency was active: 0.989 µM. With CC1(NC(=O)C2CC2)CN(Cc2nc(-c3ccccc3OCc3ccccc3)cs2)C1 the Potency was inconclusive: 16.1 µM [inhibitor, partial curve]. For COc1ccc(C(=O)NC2CCCN(c3cc(-c4ccc(F)cc4)[nH]n3)C2)cc1OC (stereo not given), the Potency was inconclusive: 11.1 µM [inhibitor, partial curve]. With O=C(COc1ccccc1[N+](=O)[O-])Nc1ccc(-c2nc3ccccc3s2)cc1 the “activity change, negative = inhibition” value was inactive: -6.45%. For CCOc1ccc(C(=O)Nc2cc(-c3nc4ccccc4s3)ccc2OC)cc1, the “activity change, negative = inhibition” value was inactive: -4.88%. In the case of Cc1cc(-c2cc3c(cn2)CN(Cc2ccccn2)CCN3)ccn1, the Potency is reported as inconclusive: 20.2 µM [inhibitor, partial curve, poor fit]. In the case of Cc1cncc(C(=O)N2CCOc3c(O)cc(-c4nc5ccccc5s4)cc3C2)c1, the “activity change, negative = inhibition” value is reported as inactive: -10.8%. With Cc1cc2nn(-c3ccc(Cl)cc3)nc2cc1NC(=O)C(C)C the Potency was inconclusive: 0.7 µM [inhibitor, full curve, poor fit]. With COc1ccc(C(=O)N[C@@H]2CN(C(=O)Nc3ccc(OC(F)(F)F)cc3)CCC[C@H]2O)cc1 the Potency was inconclusive: 11.1 µM [inhibitor, partial curve]. With Cc1cccc(C(=O)Nc2ccc(-c3nc4ccccc4s3)c(C)c2)c1 the Potency was active: 9.89 µM. COc1ccccc1OC(C)C(=O)Nc1ccc(-c2nc3ccccc3s2)cc1 (stereo not given) was tested, and the “activity change, negative = inhibition” value was inactive: -9.51%. For COC(=O)c1cccc(-c2noc(-c3ccccc3F)n2)c1, the Potency was inconclusive: 3.51 µM [inhibitor, full curve]. In the case of COc1ccc(-c2nc3ccccc3o2)cc1NC(=O)c1cccnc1, the Potency is reported as inconclusive: 12.4 µM [inhibitor, partial curve]. In the case of CCOc1ccccc1C(=O)Nc1cccc(-c2nc3ccccc3s2)c1, the Potency is reported as inconclusive: 11.1 µM [inhibitor, partial curve]. With CCc1noc(-c2nc(-c3ccccc3F)no2)n1 the Potency was inconclusive: 15.7 µM [inhibitor, partial curve, poor fit]. For Cc1ccc(-c2nnc(SCc3ccccc3)o2)cc1, the Potency was inconclusive: 11.1 µM [inhibitor, partial curve]. COc1cccc2cc(C(=O)Nc3ccc(C)cc3)c(=O)oc12 was tested, and the Potency was inconclusive: 0.496 µM [inhibitor, full curve, poor fit]. With COc1cccc(-c2ncc3c(n2)OCCN(Cc2ccccc2)C3=O)c1 the Potency was inconclusive: 12.8 µM [inhibitor, partial curve]. Cc1ccc(-n2nc(C)c([C@@H]3C=C[C@@H](NC(=O)NCc4ccccc4)C3)c2C)cc1Cl was tested, and the Potency was inconclusive: 18 µM [inhibitor, partial curve].
